Measurements as given in PubChem BioAssay (Tox21).
Inconclusive results, whose numbers are uncertain, are shown with a selection of clear calls. For some assays here: Potencies of inconclusive entries are doubtful fits and often do not repeat. The source made the active and inactive calls. Unless noted, calls follow the shape of the dose curve; as a rule, active = well fitted curve in the direction sought with a large enough effect in the repeat runs; inconclusive = weak or mixed curves; inactive = no such curve, though single readings can be large; an effect the other way counts as inactive or inconclusive. Bridge positions count the residues as written; N and C are the ends. Square brackets hold non-standard residues; d marks the D form. Peptide text beside a SMILES is read from it. hArg = N=C(N)NCCCC[C@H](N)C(=O)O; Mpa = O=C(O)CCS

Columns and labels:
[1] = qHTS RealTime-Glo MT Cell Viability Assay in HepG2 cells - 16 hour (AID 1224885); conditions: RealTime-Glo luminescence; series mostly up to 76.8 µM; also: nearly all actives have a fitted effect of over 50% in size; also: potency is read from the fitted curve at half-maximal effect
Procedure, shortened: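 Real-time, nonlytic viability: 600 HepG2 cells/well mixed with NanoLuc enzyme plus prosubstrate; 5 h settle, compound (DMSO) added by pintool; luminescence monitored over 40 h at 37 C.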

[2] = molecular target: Estrogen receptor (Homo sapiens) (UniProt P03372); experiment: qHTS assay to identify small molecule antagonists of the estrogen receptor alpha (ER-alpha) signaling pathway using the BG1 cell line in the presence of 0.1 nM 17-beta-estradiol (AID 1259244); conditions: VM7Luc4E2 (BG1) ERE-luciferase, antagonist mode, 0.1 nM E2, 22 h; series mostly up to 92.4 µM; also: nearly all actives have a fitted effect of over 50% in size
Procedure, shortened: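 Quantitative high-throughput screen in VM7Luc4E2 cells: compound plus 0.1 nM E2 (final), 22 h, 37C, 5% CO2; ONE-Glo added, 30 min room temperature, luminescence measured.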

[3] = qHTS assay to identify small molecule antagonists of the estrogen receptor alpha (ER-alpha) signaling pathway using the BG1 cell line in the presence of 0.1 nM 17-beta-estradiol - cell viability counter screen (AID 1259241); conditions: VM7Luc4E2 (BG1) viability, CellTiter-Fluor protease, 22 h, 0.1 nM estradiol agonist added; series mostly up to 92.4 µM; also: potency is read from the fitted curve at half-maximal effect; nearly all actives have a fitted effect of over 40% in size
Procedure, shortened: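 Measures cytotoxicity alongside the ER-alpha antagonist readout: VM7Luc4E2 cells, charcoal-stripped serum, 0.1 nM 17beta-estradiol final, 22 hr compound incubation at 37C, CellTiter-Fluor fluorescence.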

[4] = qHTS assay to identify small molecule HDAC inhibitors - cell viability counter screen (AID 1259365); conditions: HCT-116 viability, CellTiter-Glo ATP luminescence, 2 h; series mostly up to 92.4 µM; also: potency is read from the fitted curve at half-maximal effect; nearly all actives have a fitted effect of over 50% in size
Procedure, shortened: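 Following a 2hr exposure of overnight-plated wild-type HCT-116 cells to DMSO-delivered compounds, CellTiter-Glo was added and luminescence recorded after 30min at room temperature.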

[5] = qHTS assay to identify small molecule agonists of the sonic hedgehog signaling (Shh) pathway - cell viability counter screen (AID 1259366); conditions: NIH/3T3 Gli1-Luc viability, CellTiter-Fluor, 24 h; series mostly up to 92.4 µM; also: potency is read from the fitted curve at half-maximal effect; nearly all actives have a fitted effect of over 50% in size
Procedure, shortened: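 After a 4hr attachment at 37C, NIH/3T3 cells bearing an integrated Gli1-driven luciferase reporter were dosed with compounds. Treatment lasted 24hr, with the final hour including CellTiter-Fluor for a fluorescence viability measurement.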

[6] = qHTS assay to identify small molecule antagonists of the sonic hedgehog signaling (Shh) pathway (AID 1259369; calls by dose curve; also: potency is read from the fitted curve at half-maximal effect; nearly all actives have a fitted effect of over 45% in size); conditions: NIH/3T3 Gli1-Luc reporter, Shh antagonist, luminescence 24 h; series mostly up to 92.4 µM
Procedure, shortened: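 Screening used 3T3Gli1-Luc cells at 2,000 per well, compounds delivered in DMSO, and conditioned medium as agonist stimulus; plates incubated 24hr at 37 C and 5% CO2 before a 30min luciferase step.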
Tags tell the direction and shape of the fitted curve.

Sequence of UniProt P03372 (P03372 whole entry, looked up): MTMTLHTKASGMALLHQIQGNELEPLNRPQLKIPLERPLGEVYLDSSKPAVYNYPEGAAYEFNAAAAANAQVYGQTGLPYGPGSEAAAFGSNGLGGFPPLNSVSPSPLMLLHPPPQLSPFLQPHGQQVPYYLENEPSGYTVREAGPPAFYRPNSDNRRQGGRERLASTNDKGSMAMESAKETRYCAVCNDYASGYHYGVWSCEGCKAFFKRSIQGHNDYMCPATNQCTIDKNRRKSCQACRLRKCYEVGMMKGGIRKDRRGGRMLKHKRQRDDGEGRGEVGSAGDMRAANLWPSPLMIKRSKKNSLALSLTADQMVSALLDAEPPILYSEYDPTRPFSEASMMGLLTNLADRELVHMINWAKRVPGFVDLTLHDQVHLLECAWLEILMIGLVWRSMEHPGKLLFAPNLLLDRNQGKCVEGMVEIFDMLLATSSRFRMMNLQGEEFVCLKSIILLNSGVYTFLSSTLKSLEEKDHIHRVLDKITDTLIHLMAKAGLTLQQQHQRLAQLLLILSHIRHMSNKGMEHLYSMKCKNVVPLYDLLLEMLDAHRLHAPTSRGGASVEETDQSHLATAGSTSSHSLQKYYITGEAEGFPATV

Question: What does the source list for `NC(=O)[C@@H]1CSSCCC(=O)N[C@@H](CCCCN=C(N)N)C(=O)NCC(=O)N[C@@H](CC(=O)O)C(=O)N[C@@H](Cc2c[nH]c3ccccc23)C(=O)N2CCC[C@H]2C(=O)N1` ([Mpa][hArg]GDWPC-NH2; disulfide 1-7)?
Answer: Potency [1]: inactive; Potency [2]: inactive

Question: Which Potency [1] does the source give for `Cc1cc2nc3ccc(=[N+](C)C)cc-3sc2cc1N` here?
Answer: The Potency was active: 9.52 µM.

Question: And the Potency [3]?
Answer: The Potency was inconclusive: 15 µM [cytotoxic, partial curve].

Question: And the Potency [4]?
Answer: The Potency was inconclusive: 13.3 µM [cytotoxic, partial curve].

Question: What about the Potency [5] of the same compound?
Answer: The Potency was active: 9.44 µM.

Question: Which results are given for `CCCC/C=C/C=C\C=O`?
Answer: Potency [1]: inactive; Potency [6]: inconclusive: 54.5 µM [inhibitor, partial curve]
